Experimental data as given in the supplement of paper PMC6828730.
The list shows a part of the results. Many values rest on one well or one pass, so single values are uncertain.

These molecules were tested on hiPSC-derived cardiomyocytes (assay: time to death of most cells in well after compound addition (days); higher = less cardiotoxic; extreme values may be limits of the assay). Conditions: screen: 4; 10 µM.

| Structure (SMILES) | time to death of most cells in well |
| --- | --- |
| Cc1cn(-c2cc(NC(=O)c3ccc(C)c(Nc4nccc(-c5cccnc5)n4)c3)cc(C(F)(F)F)c2)cn1 [Nilotinib (AMN-107)] | > 7 |
| N#CC[C@H](C1CCCC1)n1cc(-c2ncnc3[nH]ccc23)cn1 | > 7 |
| COc1cc(N2CCC(N)CC2)ccc1Nc1ncc(Cl)c(-c2c[nH]c3ccccc23)n1 | 1.5 |
| COc1c(C)c(C(=O)c2ccc(N)c(C(=O)O)c2)n2ccccc12 | > 7 |
| CC(=O)Nc1cccc(-n2c(=O)n(C3CC3)c(=O)c3c(Nc4ccc(I)cc4F)n(C)c(=O)c(C)c32)c1 | > 7 |
| Cc1nc2c(-c3cnc(N)nc3)nc(N3CCOCC3)nc2n1C(C)C | > 7 |
| O=C1c2ccccc2-c2n[nH]c3cccc1c23 | > 7 |
| CC[C@H](Nc1ncnc2[nH]cnc12)c1nc2cccc(F)c2c(=O)n1-c1ccccc1 [Idelalisib (CAL-101, GS-1101)] | > 7 |
| N#Cc1ccc2[nH]c(O)c(-c3ccc(CN4CCOCC4)cn3)c2c1 | > 7 |
| Cc1nc(N)sc1-c1ccnc(Nc2ccc(N3CCOCC3)cc2)n1 | > 7 |
| CNC(=O)c1c(F)cccc1Nc1nc(Nc2cc3c(cc2OC)CCN3C(=O)CN(C)C)nc2[nH]ccc12 | > 7 |
| COc1ccc2cc(-c3nc(-c4ccc([S+](C)[O-])cc4)[nH]c3-c3ccncc3)ccc2c1 (stereo not drawn) [Tie2 kinase inhibitor] | > 7 |
| O=C(O)CCC(=O)Nc1ccc(Br)cn1 [Bikinin] | > 7 |
| CCS(=O)(=O)Nc1ccc2[nH]c(O)c(C(=Nc3ccc(CN4CCCCC4)cc3)c3ccccc3)c2c1 [Hesperadin] | > 7 |
| COc1ccc2c(c1)/C(=C/c1cnc[nH]1)C(=O)N2 | > 7 |
| Cc1[nH]c(/C=C2\C(=O)Nc3ccccc32)c(C)c1CCC(=O)O [Orantinib (TSU-68, SU6668)] | > 7 |
| CS(=O)(=O)c1cccc(CNc2nc(Nc3ccc4c(c3)CCC(=O)N4)ncc2C(F)(F)F)c1 | > 7 |
| COc1ccc2c(Oc3ccc(NC(=O)c4c(C)n(CC(C)(C)O)n(-c5ccccc5)c4=O)nc3)ccnc2c1 | > 7 |
| CCN1CCN(Cc2ccc(Nc3ncc(F)c(-c4cc(F)c5nc(C)n(C(C)C)c5c4)n3)nc2)CC1 | > 7 |
| CCc1cncnc1N1CCN(Cc2nc3ccc(C(F)(F)F)cc3[nH]2)CC1 | > 7 |
| CN1CCC(CNc2ccc3ncc(-c4cccc(OC(F)(F)F)c4)n3n2)CC1 [SGI-1776 free base] | 1 |
| NC(=O)c1cccc(-c2cc(Nc3ccc(OC(F)(F)F)cc3)ncn2)c1 | > 7 |
| O=c1[nH]c2ccc(Cl)cc2c(N[C@@H]2CN3CCC2CC3)c1-c1nc2ccccc2[nH]1 | > 7 |
